Some of the results follow. These are noisy estimates, calculated here from bound and input reads.
biological target: T1, Pho4 (S. cerevisiae) (UniProt P07270); assay: relative binding free energy (BET-seq); higher = weaker binding; details: reference: library average
T1 sequence: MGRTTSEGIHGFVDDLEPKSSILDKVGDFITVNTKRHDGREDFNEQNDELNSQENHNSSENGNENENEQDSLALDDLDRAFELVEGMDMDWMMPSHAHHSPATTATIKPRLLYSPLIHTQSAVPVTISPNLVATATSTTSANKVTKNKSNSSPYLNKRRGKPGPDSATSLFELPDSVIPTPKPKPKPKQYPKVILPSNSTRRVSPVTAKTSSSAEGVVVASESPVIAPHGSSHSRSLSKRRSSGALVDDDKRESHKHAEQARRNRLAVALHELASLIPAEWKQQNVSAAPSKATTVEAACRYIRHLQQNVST

Row | Sequence | relative binding free energy
1 | CTTCTCACGTGGGGGG | 0.08 kcal/mol
2 | AGTTGCACGTGTTTTG | 0.03 kcal/mol
3 | AATTACACGTGGTGTT | -0.13 kcal/mol
4 | TCAGGCACGTGGCGTT | -0.2 kcal/mol
5 | TTAGTCACGTGGACGG | 0.11 kcal/mol
6 | GTGTGCACGTGATGTG | 0.17 kcal/mol
7 | TGGTACACGTGTAATT | 0.04 kcal/mol
8 | GTTAACACGTGGTAAA | 0.15 kcal/mol
9 | TCTTTCACGTGATATA | 0.43 kcal/mol
10 | TGTAGCACGTGCTGTG | -0.17 kcal/mol
11 | GTTTGCACGTGCGTCG | -0.11 kcal/mol
12 | TTGCGCACGTGATGGC | -0.01 kcal/mol
13 | GTGTACACGTGAGCGT | 0.15 kcal/mol
14 | ATTGCCACGTGGTTTA | -0.17 kcal/mol
15 | AACGTCACGTGTAGGT | 0.16 kcal/mol
16 | TTTAGCACGTGTTGTT | -0.03 kcal/mol
17 | TGTGGCACGTGATGAT | 0.02 kcal/mol
18 | TAGGGCACGTGTAGGT | -0.08 kcal/mol
19 | CATATCACGTGAGGGT | 0.45 kcal/mol
20 | TAAATCACGTGTGTGC | 0.08 kcal/mol
21 | GTGTCCACGTGATTGG | 0.17 kcal/mol
22 | CAGAGCACGTGTAGTG | -0.07 kcal/mol
23 | CGAAGCACGTGGGCGG | -0.19 kcal/mol
24 | GTTTACACGTGATGCT | 0.17 kcal/mol
25 | GGGATCACGTGCGGTG | 0.15 kcal/mol

Row | Sequence | relative binding free energy
26 | AAAAACACGTGTTTTT | 0.03 kcal/mol
27 | GGTGTCACGTGATCTT | 0.29 kcal/mol
28 | AATTACACGTGAGGAA | 0.53 kcal/mol
29 | CTGCGCACGTGGGTTG | -0.34 kcal/mol
30 | GTTATCACGTGGTCGT | 0.1 kcal/mol
31 | TTTGACACGTGGAATC | 0.19 kcal/mol
32 | TTGTACACGTGTGGCG | 0.08 kcal/mol
33 | TGTGTCACGTGACGGA | 0.12 kcal/mol
34 | TAGGCCACGTGTCGGT | -0.04 kcal/mol
35 | AAAGGCACGTGATAGG | -0.09 kcal/mol
36 | CAGGTCACGTGGAGAG | 0.06 kcal/mol
37 | GTGCTCACGTGTTGAG | 0.26 kcal/mol
38 | GTAAGCACGTGCTGGA | -0.01 kcal/mol
39 | GTCAGCACGTGGGTGA | -0.12 kcal/mol
40 | AAAGGCACGTGAGCGG | 0.09 kcal/mol
41 | CATTGCACGTGATATG | -0.03 kcal/mol
42 | TGGTGCACGTGATAAG | 0.16 kcal/mol
43 | AGGTTCACGTGCATAT | 0.06 kcal/mol
44 | ATTGACACGTGGAAGA | 0.01 kcal/mol
45 | ATGGACACGTGTGTTC | -0.02 kcal/mol
46 | ATTGACACGTGGGTGA | -0.12 kcal/mol
47 | TGGTTCACGTGGGCGC | 0.17 kcal/mol
48 | TATCACACGTGGGGAG | -0.05 kcal/mol
49 | GCTCTCACGTGGGAGG | 0.19 kcal/mol
50 | ATTGGCACGTGTACGT | -0.06 kcal/mol

Row | Sequence | relative binding free energy
51 | AGTTTCACGTGTAAGT | 0.23 kcal/mol
52 | GACGACACGTGGGTGG | -0.04 kcal/mol
53 | TATTACACGTGCGGAG | 0.13 kcal/mol
54 | TTTTTCACGTGAAAAT | 0.31 kcal/mol
55 | GTGGTCACGTGATGAG | 0.32 kcal/mol
56 | GGAATCACGTGGTTGG | 0.21 kcal/mol
57 | GGCCGCACGTGTGTTG | 0.11 kcal/mol
58 | ATTGGCACGTGAATGA | 0.05 kcal/mol
59 | GTTAACACGTGGGTCG | 0.11 kcal/mol
60 | GGTATCACGTGCATGT | 0.04 kcal/mol
61 | CTTTGCACGTGGTAAG | -0.01 kcal/mol
62 | AGGTACACGTGGAGCG | 0.09 kcal/mol
63 | TTCTCCACGTGTTGTG | 0.1 kcal/mol
64 | GAGGTCACGTGTTATT | 0.24 kcal/mol
65 | ACAGTCACGTGAAGGT | 0.31 kcal/mol
66 | TCATGCACGTGCGTTG | -0.19 kcal/mol
67 | TCTGTCACGTGAGGTT | 0.25 kcal/mol
68 | TTGTCCACGTGTTGGC | 0.07 kcal/mol
69 | GCTTTCACGTGTAGTT | 0.35 kcal/mol
70 | TGTCACACGTGTAATG | 0.06 kcal/mol
71 | TGTTTCACGTGTAGCG | 0.4 kcal/mol
72 | TGATACACGTGATGAG | 0.18 kcal/mol
73 | CATGTCACGTGCGGTG | 0.07 kcal/mol

From the BET-seq Pho4 binding data (Le et al. 2018)
